{"source": "PubChem BioAssay AID1476", "about": "(National Center for Advancing Translational Sciences (NCATS), 2009)", "note": "“And” between values parts separate entries of the source, which are not always exact repeats. Identical values can stand only once. Out of some 200,000 compounds screened, about 4,500 (2.2%) were called active. The inconclusive results got no clear call from the source; some entries with a clear call stand among them for comparison. Calls come from the whole dose curve; as a rule, active = well fitted inhibition curve with a large enough effect; inconclusive = small, poorly fitted or top-dose-only effect, or effect the other way; inactive = flat fitted curve, though single readings scatter. Where the call is inconclusive, the potency comes from a doubtful curve fit. Potency is the fitted concentration of half-maximal effect; tags give direction and shape of the fitted curve."}
{"target": "Cruzipain (Trypanosoma cruzi) (UniProt P25779)", "sequence (P25779 whole entry, looked up)": "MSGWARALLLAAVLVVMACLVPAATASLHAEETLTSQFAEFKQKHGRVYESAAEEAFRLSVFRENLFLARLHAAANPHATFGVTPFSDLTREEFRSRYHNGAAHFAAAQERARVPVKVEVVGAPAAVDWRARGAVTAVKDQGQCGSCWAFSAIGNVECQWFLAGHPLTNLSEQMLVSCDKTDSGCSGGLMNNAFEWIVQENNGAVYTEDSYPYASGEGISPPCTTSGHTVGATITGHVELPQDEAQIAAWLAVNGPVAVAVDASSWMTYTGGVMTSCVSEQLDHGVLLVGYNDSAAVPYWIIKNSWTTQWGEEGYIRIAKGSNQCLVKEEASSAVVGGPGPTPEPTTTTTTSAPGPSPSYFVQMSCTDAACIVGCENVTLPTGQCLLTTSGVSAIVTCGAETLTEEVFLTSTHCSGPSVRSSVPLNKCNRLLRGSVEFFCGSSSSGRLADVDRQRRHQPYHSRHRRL", "assay": "qHTS Assay for Promiscuous and Specific Inhibitors of Cruzain (without detergent); note: nearly all actives have a fitted effect of over 40% in size;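 for max response, negative = inhibition: plate controls were enzyme without inhibitor for no effect and buffer without enzyme for full effect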", "conditions": "purified cruzain, Z-FR-AMC fluorescence, no detergent", "outline": "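Purified cruzain at 1.5 nM, pre-incubated 15 min with compound at room temperature in 100 mM sodium acetate pH 5.5, 5 mM DTT, 0.00005% Triton X-100. Reaction started with 2 uM Z-FR-AMC; AMC fluorescence increase over 60 s gives rate.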"}
{"smiles": "Cn1c(=O)c(C(=O)CSc2nnc(Nc3ccccc3)s2)c(N)n(Cc2ccccc2)c1=O", "Potency": "inconclusive: 20 µM [inhibitor, single point]"}
{"smiles": "Cc1nc(NC(=O)CC(C)C)sc1-c1csc(Nc2ccc(Cl)cc2)n1", "Potency": "active: 12.6 µM"}
{"smiles": "Cc1ccc(Cl)cc1NC(=O)COC(=O)c1ccc(COc2ccc3c(C)cc(=O)oc3c2)cc1", "Potency": "active: 7.94 µM"}
{"smiles": "Fc1ccc2c(Cl)c(-c3nnc(-c4cccs4)o3)sc2c1", "Potency": "active: 10 µM"}
{"smiles": "O=c1c(C=Nc2ccc(Cl)cc2)c[nH]n1-c1cccc(Cl)n1", "Potency": "inconclusive: 39.8 µM [inhibitor, single point]"}
{"smiles": "CCc1ccc(OCCCSc2nc(-c3ccc(C(C)(C)C)cc3)nc3cc(=O)[nH]n23)cc1", "Potency": "active: 6.31 µM"}
{"smiles": "O=C1C2Sc3[nH]c(=O)sc3C(c3ccccc3)C2C(=O)N1c1ccc(Cl)cc1", "note": "(stereo unspecified)", "max response, negative = inhibition": "inactive: -17.3%"}
{"smiles": "CSc1nc(C)cc(Nc2c(C)cc(C)cc2C)n1", "max response, negative = inhibition": "inactive: -12.1%"}
{"smiles": "COc1cccc(-c2nc(NCc3cnc(C)cn3)c3ccccc3n2)c1", "max response, negative = inhibition": "inactive: 10.3%"}
{"smiles": "COc1cccc(C(=O)Nc2ccc(Cl)c(-c3nc4ccccc4[nH]3)c2)c1", "Potency": "inconclusive: 39.8 µM [inhibitor, single point]"}
{"smiles": "COC(=O)c1n[nH]c2ccccc12", "max response, negative = inhibition": "inactive: 13.9%"}
{"smiles": "Cc1ccc(Cn2c(C(=O)Nc3cccc(Cl)c3)cc3sccc32)cc1", "Potency": "active: 25.1 µM"}
{"smiles": "COc1ccc(-c2cc(C(F)(F)F)nc(-n3cc(Br)cn3)n2)cc1", "Potency": "inconclusive: 10 µM [activator, partial curve]"}
{"smiles": "CCCCc1cc(=O)oc2cc(C)c3c(C)coc3c12", "max response, negative = inhibition": "inactive: -3.57%"}
{"smiles": "CCN1C(=O)c2cccc3c(NC(=O)c4ccc(S(=O)(=O)N5CCOCC5)cc4)ccc1c23", "Potency": "inconclusive: 39.8 µM [activator, single point]"}
{"smiles": "CSc1ncc(Cl)c(C(=O)Nc2ccc(S(=O)(=O)N3CCC(C)CC3)cc2)n1", "max response, negative = inhibition": "inactive: -4.61%"}
{"smiles": "CCOCCCn1c(=N)c(C(=O)NC2CCCCC2)cc2c(=O)n3ccccc3nc21", "max response, negative = inhibition": "inactive: -0.0676%"}
{"smiles": "O=c1c2ccccc2nc(SCc2ccccc2)n1Cc1ccco1", "max response, negative = inhibition": "inactive: -26.6%"}
{"smiles": "Cc1ccc(Cl)cc1N1CCN(C(=O)C2CCN(S(=O)(=O)c3cn(C)cn3)CC2)CC1", "Potency": "inconclusive: 39.8 µM [activator, single point]"}
{"smiles": "Cc1cc(C)c2c(n1)nn1c(C)c(CCC(=O)Nc3cccc(C)c3C)c(C)nc21", "Potency": "inconclusive: 6.31 µM [activator, single point]"}
{"smiles": "CCc1nn(CCCC(=O)NCc2ccccc2OC)c(=O)c2cc3occc3n12", "max response, negative = inhibition": "inactive: -6.49%"}
{"smiles": "COc1ccc(C(=O)/C=C/Nc2ccc(S(=O)(=O)Nc3nc(C)cc(C)n3)cc2)cc1OC", "Potency": "inconclusive: 31.6 µM [activator, single point]"}
{"smiles": "Cc1ccc(-c2noc(-c3ccccc3C(=O)N3CCCC3)n2)cc1", "Potency": "inconclusive: 25.1 µM [activator, single point]"}
{"smiles": "Cc1cc(C)c2oc(-c3cccc(NC(=O)c4cccc(F)c4)c3C)nc2c1", "max response, negative = inhibition": "inactive: -10.4%"}
{"smiles": "Cc1ccc(S(=O)(=O)N(CCO)Cc2cc3ccc(C)c(C)c3[nH]c2=O)cc1", "Potency": "inconclusive: 25.1 µM [activator, single point]"}
{"smiles": "O=C(Nc1cccc(C(F)(F)F)c1)c1cc(S(=O)(=O)N2CCCCC2)ccc1N1CCOCC1", "Potency": "inconclusive: 25.1 µM [activator, single point]"}
{"smiles": "CC(C)[C@@H](CC(=O)N[C@@H]1CCCC[C@H]1C(=O)N[C@H](CC(=O)N[C@@H](CCC(=O)O)CC(=O)O)Cc1ccccc1)NC(=O)C[C@H](Cc1ccccc1)NC(=O)[C@@H]1CCCC[C@H]1N", "Potency": "inconclusive: 20 µM [activator, single point]"}
{"smiles": "Cc1ccc(OCc2nnc(SCC(=O)Nc3cc(C)on3)n2C)cc1", "Potency": "inconclusive: 25.1 µM [inhibitor, single point]"}
{"smiles": "CCc1ccccc1NC(=O)Cn1c(=O)n(CCc2ccccc2)c(=O)c2sc3ccccc3c21", "max response, negative = inhibition": "inactive: 3.69%"}
{"smiles": "CCN(C(=O)c1ccco1)c1nc(CC(=O)Nc2ccc(Cl)cc2)cs1", "Potency": "inconclusive: 31.6 µM [inhibitor, single point]"}
{"smiles": "Cc1cccc(-c2nc3c4ccccc4nc(N4CCN(c5cccc(Cl)c5)CC4)n3n2)c1", "max response, negative = inhibition": "inactive: 15%"}
{"smiles": "CC(=O)Nc1nonc1NC(=O)CSc1ccccn1", "max response, negative = inhibition": "inactive: -0.83%"}
{"smiles": "Cc1cccc(NC(=O)CSc2nc(-c3cccs3)nc3cc(=O)[nH]n23)c1", "Potency": "inconclusive: 3.98 µM [activator, single point]"}
{"smiles": "CC(=O)[C@H]1CC[C@@H]2[C@]1(C)CC=C1[C@@]23C=C[C@]2(C[C@H](O)CC[C@@]12C)[C@H](C(=O)O)[C@@H]3C(=O)O", "max response, negative = inhibition": "inactive: -3.14%"}
{"smiles": "CCOC(=O)c1ncc2[nH]c3cccc(OC(C)C)c3c2c1C", "Potency": "inconclusive: 39.8 µM [activator, single point]"}
{"smiles": "FC(F)(F)c1ccccc1-c1cc(NCCN2CCOCC2)ncn1", "max response, negative = inhibition": "inactive: -4.09%"}
{"smiles": "COc1ccc(-c2nnn(CC(=O)NC3CCCc4ccccc43)n2)cc1OC", "note": "(stereo unspecified)", "Potency": "inconclusive: 10 µM [activator, partial curve]"}
{"smiles": "COc1cccc(Cn2c(C)c(CNCc3cccc(C)c3)c(C(=O)O)c2C)c1", "Potency": "inconclusive: 0.794 µM [inhibitor, partial curve]"}
{"smiles": "c1ccc(N2CCN(c3nc(-c4cccs4)nc4ccccc34)CC2)cc1", "Potency": "inconclusive: 31.6 µM [inhibitor, single point]"}
{"smiles": "Cc1ccc(NC(=S)NCc2ccc3[nH]c4c(c3c2)CCCC4)cc1", "Potency": "active: 31.6 µM"}
{"smiles": "CC(=O)c1ccc(NC(=O)c2ccc(-c3nc(CSc4ccc(C)cc4)c(C)o3)cc2)cc1", "Potency": "inconclusive: 7.94 µM [inhibitor, full curve]"}
{"smiles": "CCCCCOc1ccc(C(=O)C(c2ccccc2)N2CCOCC2)cc1", "note": "(stereo unspecified)", "Potency": "inconclusive: 39.8 µM [activator, single point]"}
{"smiles": "CCOc1ccc(NC(=O)c2cccnc2Cl)c([N+](=O)[O-])c1", "Potency": "inconclusive: 31.6 µM [inhibitor, single point]"}
{"smiles": "Cc1ccc(S(=O)(=O)NC(=O)c2ccc(Br)o2)c(C)c1", "max response, negative = inhibition": "inactive: 0.197% and inactive: -2.85%"}
{"smiles": "CC(C)(C)c1nc(SCC(=O)Nc2ccc(N3CCOCC3)cc2)c2ccccc2n1", "Potency": "inconclusive: 31.6 µM [activator, single point]"}
{"smiles": "O=C(/C=C/c1ccc(Br)o1)NC(c1ccccc1)c1ccccc1", "Potency": "inconclusive: 25.1 µM [inhibitor, single point]"}
{"smiles": "COc1cc(C(=O)NCc2ccc3c(c2)CCN3C(=O)c2ccc(Cl)cc2)cc(OC)c1OC", "Potency": "inconclusive: 39.8 µM [activator, single point]"}
{"smiles": "N#Cc1c2c(nc(N)c1-c1ccccc1)CCCCC2", "Potency": "inconclusive: 39.8 µM [inhibitor, single point]"}
{"smiles": "COc1ccc(C2CC(=O)c3cc(-c4nc(-c5cccc([N+](=O)[O-])c5)cs4)c(=O)n(-c4cccc(C)c4)c3C2)cc1", "note": "(stereo unspecified)", "Potency": "inconclusive: 2.51 µM [inhibitor, full curve, poor fit]"}
{"smiles": "CCCn1c(SCC(=O)N2c3ccccc3Sc3ccccc32)nc2ccccc21", "Potency": "inconclusive: 39.8 µM [inhibitor, single point]"}
{"smiles": "Cc1ccc(Cl)cc1N1CCN(C(=O)Cn2nc(C)c3sc4ccccc4c3c2=O)CC1", "Potency": "inconclusive: 39.8 µM [activator, single point]"}
{"smiles": "CC(=O)Nc1nc(-c2ccc(Br)s2)cs1", "Potency": "active: 12.6 µM"}
{"smiles": "COc1ccccc1NC(=O)Cn1nnc(C(=O)NCc2cccs2)c1N", "max response, negative = inhibition": "inactive: -25.6%"}
{"smiles": "CCCOc1ccc(N2C(=O)CC(N3CCC(O)(c4cccc(C(F)(F)F)c4)CC3)C2=O)cc1", "note": "(stereo unspecified)", "Potency": "inconclusive: 25.1 µM [activator, single point]"}
{"smiles": "COCC(=O)N1CCC[C@@]2(CCN(Cc3cc(C(F)(F)F)cc(C(F)(F)F)c3)C2)C1", "max response, negative = inhibition": "inactive: -1.82%"}
{"smiles": "CC(=O)OC[C@H]1O[C@@H](O/N=C/C[C@@H]2C=C[C@H](OC(C)=O)[C@@H](COC(C)=O)O2)[C@H](OC(C)=O)[C@@H](OC(C)=O)[C@@H]1OC(C)=O", "Potency": "inconclusive: 31.6 µM [activator, single point]"}
{"smiles": "CCOC(=O)c1ccc(N2C(=O)c3[nH]nc(-c4ccc(OC)cc4)c3C2c2cccc(O)c2)cc1", "note": "(stereo unspecified)", "Potency": "inconclusive: 10 µM [inhibitor, single point]"}
{"smiles": "Cc1cc(C)nc(SCC(=O)NC2=NN=C(c3ccc(Br)cc3)CS2)n1", "Potency": "inconclusive: 39.8 µM [activator, single point]"}
{"smiles": "CC1(OC(=O)CCc2ccccc2)C(=O)C=C2C=C(c3ccsc3)OC=C2C1=O", "note": "(stereo unspecified)", "max response, negative = inhibition": "inactive: -14.2%"}
{"smiles": "COc1ccccc1CNC(=O)Cn1nc(C)n2cccc2c1=O", "Potency": "inconclusive: 39.8 µM [inhibitor, single point]"}
{"smiles": "O=C(Cn1nc(Cc2cccnc2)c2ccccc2c1=O)Nc1ccc(F)c(Cl)c1", "max response, negative = inhibition": "inactive: -1.79%"}
{"smiles": "Cc1cc2c(c(C)c1Cl)C(c1ccc3c(c1)OCO3)CC(=O)O2", "note": "(stereo unspecified)", "Potency": "inconclusive: 28.2 µM [inhibitor, single point]"}
{"smiles": "Cc1ccc(NC(=O)C2CCN(S(=O)(=O)c3cccc4nonc34)CC2)nc1", "max response, negative = inhibition": "inactive: 2.29%"}
{"smiles": "CN1CCN(NC(=O)C23CC4CC(CC(C4)C2)C3)CC1", "max response, negative = inhibition": "inactive: -6.72%"}
{"smiles": "CCC(Sc1nnc2c3ccccc3n(CC)c2n1)C(=O)Nc1ccc(NC(C)=O)cc1", "note": "(stereo unspecified)", "Potency": "inconclusive: 39.8 µM [activator, single point]"}
{"smiles": "Cc1ccccc1-c1nc(CS(=O)(=O)CC(=O)NCCCc2ccccc2)c(C)o1", "Potency": "inconclusive: 25.1 µM [activator, single point]"}
